In assay [1] the target is T1, human CD73 on cells (human, UniProt P21589 27-549).
T1 sequence: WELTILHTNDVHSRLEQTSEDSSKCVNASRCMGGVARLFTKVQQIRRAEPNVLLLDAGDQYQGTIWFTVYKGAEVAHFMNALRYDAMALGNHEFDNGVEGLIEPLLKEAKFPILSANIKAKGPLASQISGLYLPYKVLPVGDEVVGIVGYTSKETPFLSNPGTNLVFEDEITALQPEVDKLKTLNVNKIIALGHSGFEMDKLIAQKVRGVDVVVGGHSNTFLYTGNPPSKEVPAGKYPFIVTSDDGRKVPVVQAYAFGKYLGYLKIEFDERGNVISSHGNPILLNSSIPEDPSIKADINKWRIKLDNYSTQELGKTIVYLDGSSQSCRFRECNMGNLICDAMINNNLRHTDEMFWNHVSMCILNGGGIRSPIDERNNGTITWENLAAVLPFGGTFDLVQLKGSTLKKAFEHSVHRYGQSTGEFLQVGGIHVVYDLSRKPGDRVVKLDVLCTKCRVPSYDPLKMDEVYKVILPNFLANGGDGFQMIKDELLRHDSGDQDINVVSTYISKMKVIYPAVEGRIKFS
In words: cell-based or functional assay.

The target in assay [2] is T2, murine CD73 on cells (murine, UniProt Q61503 29-551).
T2 sequence (looked up): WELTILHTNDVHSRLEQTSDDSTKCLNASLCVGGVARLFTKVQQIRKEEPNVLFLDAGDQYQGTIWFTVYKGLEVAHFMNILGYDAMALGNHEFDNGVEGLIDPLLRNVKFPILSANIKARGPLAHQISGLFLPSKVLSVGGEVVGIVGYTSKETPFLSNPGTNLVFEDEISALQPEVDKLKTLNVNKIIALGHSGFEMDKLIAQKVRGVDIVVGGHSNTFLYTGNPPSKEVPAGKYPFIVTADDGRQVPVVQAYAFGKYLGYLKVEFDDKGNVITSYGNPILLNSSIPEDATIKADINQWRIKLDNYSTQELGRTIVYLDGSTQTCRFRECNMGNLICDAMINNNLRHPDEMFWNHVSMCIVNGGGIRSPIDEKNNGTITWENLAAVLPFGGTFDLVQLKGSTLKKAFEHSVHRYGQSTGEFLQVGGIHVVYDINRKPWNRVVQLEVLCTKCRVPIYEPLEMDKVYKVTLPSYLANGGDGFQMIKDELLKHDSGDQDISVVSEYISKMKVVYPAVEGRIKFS
In words: cell-based or functional assay.

B1: P32E (antibody, IgG1, V domains shown)
VH: [not shown - about 100 residues]LGYSTIDYWGRGTLVTVSS
VL: QSVLTQPPSASGTPGQRVTISCSGSLSNIGRNEVNWYQQLPGTAPKLLIYLNNQRPSGVPDRFSGSKSGTSASLAISGLQSEDEADYYCATWDDSLNGWLFGGGTKLTVL
notes: also called L1-P32E; clone 10 P32E
Turning to B1, in assay [1], the “FabZAP internalization, EC50, MDA-MB-231” value worked out at 0.0157 nM and the “FabZAP internalization, max toxicity, MDA-MB-231” value was found to be 95%. In addition, in assay [2], the “FabZAP internalization, EC50, 4T1” value came out at 0.124 nM and the “FabZAP internalization, max toxicity, 4T1” value amounted to 92%.
